These are yes or no findings as the source states them, for the method shown. Some entries that bind do so weakly or less than the wild type.
Key:
[1] = target: T1, activin receptor type I (ActR-I) ectodomain, human (human) (UniProt Q04771); experiment: SPR; Biacore 2000; ligands as analyte over biotinylated receptor ectodomains (about 200 RU) on streptavidin-coated CM5 chips; HBS500 (10 mM HEPES pH 7.4, 500 mM NaCl, 3.4 mM EDTA, 0.005% P20), 25°C, 10 μl/min; apparent affinities, 1:2 interaction with avidity; both purified
T1 sequence (chain, N-biotinylated (sulfo-NHS-LC-biotin) where immobilised): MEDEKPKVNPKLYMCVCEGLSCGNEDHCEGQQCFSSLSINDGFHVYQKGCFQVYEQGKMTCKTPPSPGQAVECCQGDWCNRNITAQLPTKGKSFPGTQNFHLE

Sequences of proteins named here, by UniProt entry; tags and fusion partners are left off. A change or cut given only in a name is not applied to a line headed by its entry. Residues count along the entry.
UniProt P36896, residues 24-126: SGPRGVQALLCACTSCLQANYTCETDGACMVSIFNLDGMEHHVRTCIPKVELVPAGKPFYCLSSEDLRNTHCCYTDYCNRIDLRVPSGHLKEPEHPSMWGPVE
UniProt P18075, residues 293-431: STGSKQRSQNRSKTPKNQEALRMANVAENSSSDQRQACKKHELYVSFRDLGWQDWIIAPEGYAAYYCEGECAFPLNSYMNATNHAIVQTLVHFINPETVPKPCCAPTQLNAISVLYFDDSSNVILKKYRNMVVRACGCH

[2] = target: activin receptor type IB (ActR-IB) ectodomain, human (human) (UniProt P36896); experiment: as above
[3] = target: bone morphogenetic protein 7 (BMP7), human (human) (UniProt P18075); experiment: SPR; Biacore 2000; receptor ectodomains as analyte over biotinylated ligands on streptavidin-coated CM5 chips; HBS500, 25°C, 10 μl/min; apparent affinities, 1:1 interaction; both purified
[4] = target: activin receptor type II (ActR-II) ectodomain, human (human) (UniProt P27037); experiment: SPR; ligands as analyte over immobilized receptor ectodomains, 0.36% CHAPS added to HBS500 buffer; both purified

Row | binding [3] | binding [4] | Substance | binding [1] | binding [2]
1 |  |  | growth and differentiation factor 5 (GDF5), mature part (from UniProt P43026 387-501) (ligand) | no binding (tested: ligand concentrations up to 120 nM) | no binding (tested: ligand concentrations up to 120 nM)
2 | no binding |  | activin receptor type IB (ActR-IB) ectodomain, human (from UniProt P36896 24-126) |  | 
3 |  | binds | bone morphogenetic protein 7 (BMP7), human (from UniProt P18075 293-431) (ligand) |  | no binding (tested: ligand concentrations up to 120 nM)

Source: paper PMC2749821
